{"source": "paper PMC12136788", "binders": {"B1": {"name": "chr2:44428564:44428565:+_ENSG00000138032_ENST00000378551|hu_mus|FALSE|FALSE (ssRNA)", "RNA": "GGGAGUUCUACAGUCCGACGAUCGAGAGCAGAGCCUGAUUUGUCAGCUGCCCUGAAGUCUUCAUUGGUGGUGAUGUGUUCUAAUAGAUGUGUUGAACAGUAAUUUGCCACUCGGGAUCCAGCAUGACCGUCAUAAACUGCAAACAACAGAGGAUUGAGCAUCA"}, "B2": {"name": "chr5:147795600:147795601:+_ENSG00000145868_ENST00000340253|hu_hu|FALSE|FALSE (ssRNA)", "RNA": "GGGAGUUCUACAGUCCGACGAUCACUCAGACCAACUCGAGCACAACCCUUGGGUGGUUCACGAAACAUCUGAUCCAGUGAAAUAAACUCUAGGCUGGGUAAUAAUUCAAUAAACUGGCCAAAAGAGUCCAGCUUCAAAGCAUGCAACAGAGGAUUGAGCAUCA"}, "B3": {"name": "57075034_57075154_704_CDS_ENSG00000112210_ENST00000317483|human|control|control (ssRNA)", "RNA": "GGGAGUUCUACAGUCCGACGAUCCUCCAAAAAAUCAACUCCAAUGGUUUUCUUGUAGUCUUUUGUAAAAAUGCCUUUGCAAUAUCGCUGAAUCAUACUUGAUUUUCCAACUGCUCCAUUCCCUACAACCACCAUCUUUAUGGCCAACAGAGGAUUGAGCAUCA"}, "B4": {"name": "chr11:85023558:85023559:-_ENSMUSG00000018481_ENSMUST00000018625|mus_hu|FALSE|FALSE (ssRNA)", "RNA": "GGGAGUUCUACAGUCCGACGAUCGCCAUGUUUUGAUAGUUUAUCCAUAUAUGUCUGAGCUAAUUUAAAUGUUUCUUCACCCAAAUGAUAUUUGCAGUUUCCAUUUCGCACAUGAAGCAACCUCACACAACAUUCUACUGCACGCAACAGAGGAUUGAGCAUCA"}, "B5": {"name": "chr1:80268134:80268135:-_ENSMUSG00000004364_ENSMUST00000163119|mus_hu|motif|central (ssRNA)", "RNA": "GGGAGUUCUACAGUCCGACGAUCGACUCUGUGUAGUUUGGAUGUGAAUUGAUCAUUAACUGUAAAUAUAUGACCAUUUUCGGUUUCCUUUGAUUUGGGUUCUUUUGUAAGAACCCGCUGUGUUGGUUUACCACAGGCGAGGGACAACAGAGGAUUGAGCAUCA"}, "B6": {"name": "chr17:72205386:72205387:+_ENSG00000172809_ENST00000584577|hu_mus|FALSE|FALSE (ssRNA)", "RNA": "GGGAGUUCUACAGUCCGACGAUCGGGUAGGGACUGCUUCAGCUUCUCUGCCUUUUCCUUGUCUGUGAUAACCAGGGUGUAAAGGUACCUGCUGCAGCGAACCUUGAACUUCACAUUAUCCUUGUUCUUCUUGAUCUUGACAGACAACAGAGGAUUGAGCAUCA"}, "B7": {"name": "chr2:179515052:179515053:+_ENSMUSG00000000305_ENSMUST00000000314|mus_hu|mus_mus_mus_hu_False|1_98 (ssRNA)", "RNA": "GGGAGUUCUACAGUCCGACGAUCGCUGUCCCAUGCAGUGACGGUAAACGCCACCUGCUCGGAGGGGACCUGCAGCUCCCGGGUGGCGAAGACUGUCCCAUCUGCCCCAACUUUGAAGUCCAUGCUGUUGGUCUCAUACUGCAUCAACAGAGGAUUGAGCAUCA"}, "B8": {"name": "173934343_173934463_2385_3pUTR_ENSMUSG00000026556_ENSMUST00000027837|mouse|control|control (ssRNA)", "RNA": "GGGAGUUCUACAGUCCGACGAUCGCUCAGGAGGCAAGGGUAGAAUCCGGAAGGCCCUGAAUGCUUCCAUCCAGGGAAGGUUUGCGGGGGAAGAAUGGGGUGGGGGGAUGGGAGAGUUGUGAGGCACUGUUUCCUGCAGGGCCUCAACAGAGGAUUGAGCAUCA"}, "B9": {"name": "chr13:31725248:31725249:-_ENSG00000120694_ENST00000320027|perfect_dup|motif|central (ssRNA)", "RNA": "GGGAGUUCUACAGUCCGACGAUCUUUGGAUUUUGCAUCCAACUUGUACUUAGUUUUAAAUUCUGCACAAAAAUGUUCCACGGACUUUUCAUCGAAGUUUUUUCCUCCUAAGAAAGGAUCAAAAGCUGUUCCCAGUACCUUCAACAACAGAGGAUUGAGCAUCA"}, "B10": {"name": "21568532_21576724_3879_CDS_ENSMUSG00000033653_ENSMUST00000117598|mouse|control|control (ssRNA)", "RNA": "GGGAGUUCUACAGUCCGACGAUCGAGGCUGGCUGUUGUUUCUAGCAAGGUUUGCUCAUAGUUGAAGGUGUCCAGCAUCCCCAGAAUAAGGCCCUGGAUUUCUCCAAGCUUUCCUUUUCCAUAAAUUGGGUCCUGCAAGAUUCUCAACAGAGGAUUGAGCAUCA"}, "B11": {"name": "chr7:135333399:135333400:+_ENSG00000155561_ENST00000285968|hu_mus|FALSE|FALSE (ssRNA)", "RNA": "GGGAGUUCUACAGUCCGACGAUCGUCCAUAUAUAAAGAAAGAAAUAGCAAAAUAUCUUUUGGUCAUAAUUUAGAAAUAAAGUCAUCUAUAAAAAAGAGGUGGUUCUCCUCAGUUCAUCUCUUCCACGGAAGAGAGUCAGUUCUCAACAGAGGAUUGAGCAUCA"}, "B12": {"name": "chr11:97639285:97639286:-_ENSMUSG00000071415_ENSMUST00000103146|mus_mus|FALSE|FALSE (ssRNA)", "RNA": "GGGAGUUCUACAGUCCGACGAUCCUUUACUUAACCUGGAAAGUGAAGAAGUUCUGCAAGGUCAUGAAGGUCAUGCCCUGAACUGAAAUUUAAGUUUCCUUCUGCAAAGCUGAUAUUGGAAAAGGUGUCAAGAAGACCAGCUCUCAACAGAGGAUUGAGCAUCA"}, "B13": {"name": "138010474_138010594_306_5pUTR_ENSMUSG00000046447_ENSMUST00000050918|mouse|control|control (ssRNA)", "RNA": "GGGAGUUCUACAGUCCGACGAUCGGGGAGGAAACCCGGAGGGAGGGAGGGAGGGAGGGAAGAAACCGAGAGGGCGACGGGGAGAAAAACAGAAAGACAGAAGAAGGCAAGGGGAGCGGCGGGAGGAGGGAGGGUGAGGAAGGACAACAGAGGAUUGAGCAUCA"}, "B14": {"name": "chr5:173380165:173380166:+_ENSG00000113742_ENST00000334035|hu_mus|FALSE|FALSE (ssRNA)", "RNA": "GGGAGUUCUACAGUCCGACGAUCCACCCGUUUAUCUAUCUCUCCAUGCUGCAGCUGAACAAAGCGGGCACUGAUAGCAGCUAUGUAACUCUGUUGAUUAGAAAACGCGACUCUUCCAGCUCCUUUUGGGUAUUUGAGCUCUGGCAACAGAGGAUUGAGCAUCA"}, "B15": {"name": "140294198_140294318_5200_3pUTR_ENSMUSG00000031285_ENSMUST00000033642|mouse|control|control (ssRNA)", "RNA": "GGGAGUUCUACAGUCCGACGAUCGAGAGAGAGAGAAUAUAAUGUGUAAGGUCACUGUAUGCUAUUUUUGGUAUAGAUACAAAUAUUCAGUGUCAGCCAGGGCACAAUUUAGUGACAAAAGACACUUGUUUAUACCUGAAAAUUCAACAGAGGAUUGAGCAUCA"}, "B16": {"name": "chr8:17827181:17827182:+_ENSG00000078674_ENST00000519253|hu_hu|motif|central (ssRNA)", "RNA": "GGGAGUUCUACAGUCCGACGAUCGCUUUCAAAAGGUUUUGGAAAAGCCAUAUAUUCUGUUUUUCCUGAAGAAUUCUGGGCGGAGGGUUGCUGCUGUUCACUGGGUGUAGAGAUAUUCUGAGAAAAAUCUCCAAAAUUAGAAGGCAACAGAGGAUUGAGCAUCA"}, "B17": {"name": "chr8:95500983:95500984:-_ENSG00000164944_ENST00000437199|hu_hu|hu_hu_hu_mus_True|38_98 (ssRNA)", "RNA": "GGGAGUUCUACAGUCCGACGAUCAGAACACAUCUAUUCGUGUAAAGACCGUACAUGACGGCCUCUACCACUGCCUCCACUAACAAACUUUCCUCUCUGAGCCUCCAUGCCGCUAUUUGUACUAGCCCAGGACGGUCCCAGGCCCAACAGAGGAUUGAGCAUCA"}, "B18": {"name": "chr7:19737724:19737725:-_ENSG00000105849_ENST00000222567|hu_hu|FALSE|FALSE (ssRNA)", "RNA": "GGGAGUUCUACAGUCCGACGAUCGUAGAGUGCAAAACCUGGAAGAAUAUGAGAGCUGACAGUGAGAGCAGCUUUUUAUUUUGUAUAAAAUGGUAUUUUAACAAUACUGGCUUUCCCCAAAUUAAUUUACAGUCAGUUUUAUCACAACAGAGGAUUGAGCAUCA"}, "B19": {"name": "chr17:74699132:74699133:-_ENSMUSG00000024067_ENSMUST00000112571|perfect_dup|FALSE|FALSE (ssRNA)", "RNA": "GGGAGUUCUACAGUCCGACGAUCCCCAAGAAAUCAAUUUCGAUCUUCAAACUGCGCCUUGUUUUUUAAAAGAUAAGAUGCUAGGAACUCGAUGGGAUUUGGUGGUCUUUCCUUGGCAAGCACAGCAAGUCCCUGUAAUAAGAUCAACAGAGGAUUGAGCAUCA"}, "B20": {"name": "chr12:45383693:45383694:+_ENSMUSG00000036257_ENSMUST00000043082|mus_hu|FALSE|FALSE (ssRNA)", "RNA": "GGGAGUUCUACAGUCCGACGAUCACAAGAAAUACAGUUGCUUGCUUCUCUGCUUCCCACAAACACUUCUUGCAUUACUAAGGAGGUAAAUAUAUAUAUCUACAGUCAGAUUAAUAGACAUAACUUAAAAAUCAUUUAUUUUCUCAACAGAGGAUUGAGCAUCA"}, "B21": {"name": "chr20:33096620:33096621:+_ENSG00000078747_ENST00000374864|hu_hu|motif|central (ssRNA)", "RNA": "GGGAGUUCUACAGUCCGACGAUCGUCUUAAACUCCUUAACAAUAAUUAAAUAUAACUGAAGUUGUUGGAUUAUGAUAAAACGGUAAAGCAUCAAUUAUAUAGCGGAACAUAUAAAAAUCACCAGAGACAUCUUUAGAUGAAUUCAACAGAGGAUUGAGCAUCA"}, "B22": {"name": "76006661_76006781_9599_CDS_ENSMUSG00000022565_ENSMUST00000071869|mouse|control|control (ssRNA)", "RNA": "GGGAGUUCUACAGUCCGACGAUCCUGGCUGUAGGUGACUGGCUCCUGGGUGCUGGGGUCAUGGUAGACUCUGGCAUCAUCUCUGGGUGACGUCAGGGCCCUGUUAGUCUCUUUGUCCAGGUAGCCCCGGGCAUAGGCAACAUCCAACAGAGGAUUGAGCAUCA"}}, "note": "The list shows a part of the results."}
{"target": "T1, UNK ZnF1-3 (human, UniProt Q9C0B0 31-174)", "T1 sequence": "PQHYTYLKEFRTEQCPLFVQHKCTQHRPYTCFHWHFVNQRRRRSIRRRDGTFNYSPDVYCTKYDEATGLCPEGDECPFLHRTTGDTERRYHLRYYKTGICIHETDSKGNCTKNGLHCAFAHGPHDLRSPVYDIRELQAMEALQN", "test": "nsRBNS (natural sequence RNA bind-n-seq); RBNS binding buffer (assumed for nsRBNS): 25 mM Tris pH 7.5, 150 mM KCl, 3 mM MgCl2, 0.01% Triton X-100, 500 ug/ml BSA, 20 U/ml SUPERase-In, 4 C; UNK is unkempt and MSI1 is Musashi-1; names of the RNAs are library labels; protein concentration not given here; high values mean tight binding", "units": {"binding signal": "enrichment R"}}
{"binder": "B1", "binding signal": 1.12}
{"binder": "B2", "binding signal": 1.11}
{"binder": "B3", "binding signal": 0.575}
{"binder": "B4", "binding signal": 1.12}
{"binder": "B5", "binding signal": 0.438}
{"binder": "B6", "binding signal": 0.413}
{"binder": "B7", "binding signal": 0.761}
{"binder": "B8", "binding signal": 1.47}
{"binder": "B9", "binding signal": 1.17}
{"binder": "B10", "binding signal": 0.562}
{"binder": "B11", "binding signal": 1.73}
{"binder": "B12", "binding signal": 1.54}
{"binder": "B13", "binding signal": 1.89}
{"binder": "B14", "binding signal": 0.726}
{"binder": "B15", "binding signal": 1.24}
{"binder": "B16", "binding signal": 1.58}
{"binder": "B17", "binding signal": 0.982}
{"binder": "B18", "binding signal": 1.29}
{"binder": "B19", "binding signal": 0.99}
{"binder": "B20", "binding signal": 1.08}
{"binder": "B21", "binding signal": 1.68}
{"binder": "B22", "binding signal": 0.672}
